The supplement of paper PMC3334620
In all, about 33,000 sequences were measured (“E-score (-0.5 to 0.5)”: median about -0.035, highest 2% from about 0.34 on). Some of the results follow.

Biological target: T1, Mot3 (UniProt P54785)
T1 sequence: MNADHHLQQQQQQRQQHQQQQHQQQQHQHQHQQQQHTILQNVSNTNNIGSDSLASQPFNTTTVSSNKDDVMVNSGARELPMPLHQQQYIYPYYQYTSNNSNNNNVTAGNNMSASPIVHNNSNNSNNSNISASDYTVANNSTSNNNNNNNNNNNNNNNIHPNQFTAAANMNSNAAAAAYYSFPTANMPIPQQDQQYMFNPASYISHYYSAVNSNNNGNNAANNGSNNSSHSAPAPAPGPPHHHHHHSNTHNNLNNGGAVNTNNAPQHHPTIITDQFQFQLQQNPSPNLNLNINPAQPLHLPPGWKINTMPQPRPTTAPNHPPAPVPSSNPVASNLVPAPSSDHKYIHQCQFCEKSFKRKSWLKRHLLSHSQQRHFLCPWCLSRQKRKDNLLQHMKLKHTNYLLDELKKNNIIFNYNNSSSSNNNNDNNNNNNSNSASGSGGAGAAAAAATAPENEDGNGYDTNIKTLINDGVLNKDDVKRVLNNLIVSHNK
Assay: PBM E-score (8-mer binding enrichment) (E-score (-0.5 to 0.5)); higher = stronger / more preferred TF binding; most listed sequences are background and not binding sites
Conditions: protein concentration: 200 nM; construct: GST-full length
Summary of the method: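 Yeast transcription factors, full-length or as DNA-binding domains, were expressed with a GST tag using PURExpress in vitro transcription/translation. At about 100-200 nM they were applied to universal all-10-mer Agilent arrays, double-stranded by primer extension on fresh or once-stripped slides. Fluorescent anti-GST detected bound protein, and masliner normalised the scans. E-scores for ungapped eight-base words, pooled with reverse complements, came from the Universal PBM Analysis Suite.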

Sequence | PBM E-score
ACGCTGTA | 0.0866
AAGGACAA | 0.0955
AATTTGTG | -0.103
AAACTTCT | 0.0624
GGCAAGCC | 0.329
GCGTATTA | 0.298
GTAGCGCA | -0.107
TAGCGCAA | 0.0519
CTGGGACA | -0.0738
AACGCACT | 0.112
CCGGCTAA | -0.14
CACATCAG | -0.0602
GGGTAGTA | -0.109
ATTAGTCG | -0.179
AGTACGCC | -0.155
ACGGTCTC | -0.263
CCTAACAC | 0.255
ACTCCCTA | 0.108
CGGCTTAG | -0.287
ACAACACG | 0.336
CCATACGG | -0.0434
TTAGGCAA | 0.481

Sequence | PBM E-score
AATTACAA | 0.362
AACATAAA | 0.197
GGGGACGA | -0.246
AGATTTAT | -0.0544
GCTTAGCC | -0.3
CATCTGGG | -0.254
GGGATGCA | -0.33
ACAATCTA | 0.0294
ATCTACCG | -0.115
TGACTGAA | 0.0712
AACTAGAG | 0.0109
AGACACGA | 0.276
CGCACACC | -0.0075
ACGGCTTA | 0.00499
ATCACTCA | -0.256
GGGAGCGA | -0.32
GATCTAAA | -0.0607
ACTAGAGG | -0.076
GATACTCA | -0.239
GACTCGCC | -0.157
CCGAGTGA | -0.16
ACGAGAGC | -0.127

Sequence | PBM E-score
ACTAGCTA | -0.0814
AGGGCTAA | -0.0945
CTATGACC | 0.0281
TCGGACCA | -0.283
AACTATCG | -0.158
GCGAGATA | -0.121
CACGGCTA | 0.0247
CTGGCCTA | -0.104
GAGCAACA | 0.12
GACTAGGA | 0.0453
AGTTACTA | 0.0423
CGATCAAG | -0.0122
ATCTTTTG | -0.0502
ACTACACG | 0.386
AGTTCTTC | -0.0277
CGCTTCAA | -0.235
CCTTTCGA | -0.0287
GCGCTTTA | 0.0371
TACTCTAA | -0.088
CATTCGTA | 0.157
AGGGGTCA | -0.151
ACATCATG | 0.156

Sequence | PBM E-score
GCTGACAC | 0.0408
AAGTTGCC | 0.271
AAGGCTCA | 0.336
ATGGCCCG | -0.265
AATAGTAA | 0.0955
CAGGCGAA | 0.148
AGCGGGGG | -0.24
ACTGGGAG | -0.216
GCGATAAA | 0.0249
CGGCGAGC | -0.343
GCAAATTA | 0.233
CCACTGGC | -0.133
AACGCGCT | 0.1
TGACGGAA | 0.0535
AGAGCCCT | -0.193
AGGCACTG | 0.483
CGAAGACA | -0.276
CCTGCAAG | 0.0257
ATAGCCGG | -0.0657
CCTCCATA | 0.0241
